Measured values as given in a collection of fitness landscapes (doi:10.1126/science.1257360).
Some of the results follow.

B1: PhoQ; a variant is named by its letters at X, in order, P23837 (parent)
chain: MKKLLRLFFPLSLRVRFLLATAAVVLVLSLAYGMVALIGYSVSFDKTTFRLLRGESNLFYTLAKWENNKLHVELPENIDKQSPTMTLIYDENGQLLWAQRDVPWLMKMIQPDWLKSNGFHEIEADVNDTSLLLSGDHSIQQQLQEVREDDDDAEMTHSVAVNVYPATSRMPKLTIVVVDTIPVELKSSYMVWSWFIYVLSANLLLVIPLLWVAAWWSLRPIEALAKEVRELEEHNRELLNPATTRELTSLVRNLNRLLKSERERYDKYRTTLTDLTHSLKTPLXXLQXXLRSLRSEKMSVSDAEPVMLEQISRISQQIGYYLHRASMRGGTLLSRELHPVAPLLDNLTSALNKVYQRKGVNISLDISPEISFVGEQNDFVEVMGNVLDNACKYCLEFVEISARQTDEHLYIVVEDDGPGIPLSKREVIFDRGQRVDTLRPGQGVGLAVAREITEQYEGKIVAGESMLGGARMEVIFGRQHSAPKDE

Variants of: B1
Assay: enrichment ratio after two sorts for PhoP signalling (ratio (wild type AVST 3.29)); higher = more functional
Details: with PhoP (E. coli)

Variant | enrichment ratio
GLEG | ≤ 0.25
AQLD | 3.24
MRDR | ≤ 0.25
QAAN | ≤ 0.25
WCRD | ≤ 0.25
TPVE | ≤ 0.25
RTPW | ≤ 0.25
YPFA | ≤ 0.25
DSPV | ≤ 0.25
TTEM | ≤ 0.25
QTQP | ≤ 0.25
DTKR | ≤ 0.25
GVRP | ≤ 0.25
PTFF | ≤ 0.25
EQVP | ≤ 0.25
IPCC | ≤ 0.25
SSYE | ≤ 0.25
WFML | ≤ 0.25
TAWP | ≤ 0.25
PYHY | ≤ 0.25
VKPT | ≤ 0.25
KSWI | ≤ 0.25
FKPW | ≤ 0.25
GMWW | ≤ 0.25
EVKP | ≤ 0.25

Variant | enrichment ratio
HHMR | ≤ 0.25
TYVM | ≤ 0.25
YTCD | 0.419
SLNP | ≤ 0.25
QDGY | ≤ 0.25
NVIS | ≤ 0.25
RMVC | ≤ 0.25
FFWT | ≤ 0.25
KKDA | ≤ 0.25
VTAS | ≤ 0.25
VNPM | ≤ 0.25
RVEY | ≤ 0.25
CYGA | ≤ 0.25
SGES | ≤ 0.25
HRST | ≤ 0.25
GKHC | ≤ 0.25
STEF | ≤ 0.25
QTYK | ≤ 0.25
QPRR | ≤ 0.25
NHVH | ≤ 0.25
QGCA | ≤ 0.25
RRKM | ≤ 0.25
RSMQ | ≤ 0.25
YMFI | ≤ 0.25
QHHT | ≤ 0.25

Variant | enrichment ratio
NHYS | ≤ 0.25
QTRG | ≤ 0.25
NTPS | ≤ 0.25
GPID | ≤ 0.25
EAWF | ≤ 0.25
YRED | ≤ 0.25
FMSA | ≤ 0.25
QECV | 8.7
LMAP | ≤ 0.25
TGCG | 24.4
NMYY | ≤ 0.25
SGVW | ≤ 0.25
AADY | ≤ 0.25
NPGD | ≤ 0.25
KLQD | ≤ 0.25
TMSQ | 13.5
AQCN | 4.1
VRWH | ≤ 0.25
LPFK | ≤ 0.25
FVLH | 2.94
GSGI | 9.38
PMRA | ≤ 0.25
DILH | ≤ 0.25
MEYW | ≤ 0.25
GRMT | ≤ 0.25

Variant | enrichment ratio
RNHS | ≤ 0.25
FEMG | 1.94
VFVC | ≤ 0.25
PKDA | ≤ 0.25
SRVY | ≤ 0.25
TWKL | ≤ 0.25
GESL | 2.52
IFWC | 1.04
TLGD | 0.374
QLSN | ≤ 0.25
IIPK | ≤ 0.25
RHLY | 0.682
ERFY | ≤ 0.25
EKLM | ≤ 0.25
DLQR | ≤ 0.25
AGVT | 6.41
FKIA | ≤ 0.25
VKYN | ≤ 0.25
LCHH | ≤ 0.25
QYAK | ≤ 0.25
VLDP | ≤ 0.25
PKLN | 0.501
FQKM | ≤ 0.25
KHPC | ≤ 0.25
TFAT | ≤ 0.25

Variant | enrichment ratio
PNSK | ≤ 0.25
KTAW | ≤ 0.25
RQRP | ≤ 0.25
LVIV | ≤ 0.25
DYSW | 0.37
VEFS | ≤ 0.25
QCFN | ≤ 0.25
TGTR | ≤ 0.25
FLPK | ≤ 0.25
QQQA | ≤ 0.25
TTSY | 9.58
FIYK | ≤ 0.25
FSSR | ≤ 0.25
FQTK | ≤ 0.25
SSYT | ≤ 0.25
LCHD | ≤ 0.25
QQHS | ≤ 0.25
FIGK | ≤ 0.25
SKDT | ≤ 0.25
ASDD | ≤ 0.25
HWEG | ≤ 0.25
YCGI | 0.468
SIRN | ≤ 0.25
NPRV | ≤ 0.25
MRTG | ≤ 0.25

Variant | enrichment ratio
DPIG | ≤ 0.25
NTFI | ≤ 0.25
LLKP | ≤ 0.25
HNCF | ≤ 0.25
DLKM | ≤ 0.25
RSHF | ≤ 0.25
WNVD | ≤ 0.25
PNIV | ≤ 0.25
YQHL | ≤ 0.25
DDII | ≤ 0.25
NLWS | ≤ 0.25
NYFR | ≤ 0.25
PACA | ≤ 0.25
IGLS | ≤ 0.25
GMVA | ≤ 0.25
IRGV | ≤ 0.25
DPFT | ≤ 0.25
YYTS | ≤ 0.25
FTDM | ≤ 0.25
FLHP | ≤ 0.25
TGIH | ≤ 0.25
FMYS | ≤ 0.25
MIHE | ≤ 0.25
ASQP | ≤ 0.25
EYCP | ≤ 0.25

Variant | enrichment ratio
WCKC | ≤ 0.25
QKLR | ≤ 0.25
EVSS | ≤ 0.25
VKAS | ≤ 0.25
EFYW | ≤ 0.25
EICR | ≤ 0.25
TYFI | ≤ 0.25
HDRP | ≤ 0.25
VYKW | ≤ 0.25
ACKQ | ≤ 0.25
QHWY | ≤ 0.25
HNVD | ≤ 0.25
AQIQ | 27.9
DQKV | ≤ 0.25
AVNK | ≤ 0.25
RPSL | ≤ 0.25
TMLI | 4.59
YMSQ | ≤ 0.25
WGMH | ≤ 0.25
WNRP | ≤ 0.25
IRFA | ≤ 0.25
YDLT | ≤ 0.25
WHGS | ≤ 0.25
FPND | ≤ 0.25
HYKE | ≤ 0.25

Variant | enrichment ratio
WDHI | ≤ 0.25
WTGS | ≤ 0.25
EFCH | ≤ 0.25
LYME | ≤ 0.25
WPWN | ≤ 0.25
KIPA | ≤ 0.25
GGMA | ≤ 0.25
NTRT | ≤ 0.25
SAMQ | 9.86
QGID | ≤ 0.25
WYCI | ≤ 0.25
MDGH | ≤ 0.25
ELRE | ≤ 0.25
CKFL | ≤ 0.25
TEWW | ≤ 0.25
PVFM | ≤ 0.25
NIRM | ≤ 0.25
KSAM | ≤ 0.25
NKNY | ≤ 0.25
RIKF | ≤ 0.25
